From the supplement of paper PMC3334620
Whole data set: some 33,000 sequences, median “E-score (-0.5 to 0.5)” near -0.035, cut for the highest 2% near 0.35. The list shows a part of the results.

These sequences were tested against T1, Pdr3 (UniProt P33200) (assay: PBM E-score (8-mer binding enrichment) (E-score (-0.5 to 0.5)); higher = stronger / more preferred TF binding; most listed sequences are background and not binding sites). Details: protein concentration: 200 nM; construct: GST-full length.
T1 sequence: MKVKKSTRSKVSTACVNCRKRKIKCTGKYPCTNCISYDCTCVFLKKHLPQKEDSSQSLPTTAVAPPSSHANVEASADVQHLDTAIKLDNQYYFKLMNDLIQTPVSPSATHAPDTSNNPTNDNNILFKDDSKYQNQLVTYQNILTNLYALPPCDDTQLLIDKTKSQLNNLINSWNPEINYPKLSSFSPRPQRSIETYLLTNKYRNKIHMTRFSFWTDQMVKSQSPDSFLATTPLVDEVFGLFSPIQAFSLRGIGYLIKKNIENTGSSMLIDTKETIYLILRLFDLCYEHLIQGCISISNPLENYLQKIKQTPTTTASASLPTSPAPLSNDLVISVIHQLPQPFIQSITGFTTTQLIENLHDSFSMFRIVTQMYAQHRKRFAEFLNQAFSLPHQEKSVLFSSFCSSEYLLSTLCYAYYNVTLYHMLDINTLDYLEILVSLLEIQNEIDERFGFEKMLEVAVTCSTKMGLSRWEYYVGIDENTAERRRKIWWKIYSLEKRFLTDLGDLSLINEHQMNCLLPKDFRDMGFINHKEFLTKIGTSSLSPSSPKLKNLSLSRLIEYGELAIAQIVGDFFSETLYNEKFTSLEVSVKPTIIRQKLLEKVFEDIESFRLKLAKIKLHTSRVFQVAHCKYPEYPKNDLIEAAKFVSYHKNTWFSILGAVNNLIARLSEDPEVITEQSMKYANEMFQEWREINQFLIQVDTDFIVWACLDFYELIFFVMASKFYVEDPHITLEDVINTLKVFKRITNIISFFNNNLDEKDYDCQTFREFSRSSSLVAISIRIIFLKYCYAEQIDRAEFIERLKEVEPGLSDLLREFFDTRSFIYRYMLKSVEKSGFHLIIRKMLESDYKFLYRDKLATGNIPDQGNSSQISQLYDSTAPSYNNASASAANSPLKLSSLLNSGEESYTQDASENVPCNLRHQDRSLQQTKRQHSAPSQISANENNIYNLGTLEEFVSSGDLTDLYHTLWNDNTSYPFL
Procedure, shortened: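 Universal all-10-mer Agilent arrays, fresh or stripped once, were converted to double-stranded form by primer extension. GST-tagged yeast transcription factors from PURExpress in vitro transcription/translation, full-length or DNA-binding domain only, were applied at about 100-200 nM and detected with fluorescent anti-GST. After masliner normalisation, the Universal PBM Analysis Suite scored each ungapped eight-base word together with its reverse complement by E-score.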

Point of comparison: ATCATCTA, “PBM E-score” value -0.0371. Against it:
- CTACAGAC — lower, -0.198
- ATCCTAAT — higher, -0.00206
- ACCCAGCA — lower, -0.108
- CCTTGTTC — lower, -0.114
- CACCCAGA — lower, -0.215
- CATTGGCG — lower, -0.189
- ATAGTGAC — lower, -0.0769
- CGCCGCGC — higher, 0.309
- TATCGCAA — higher, -0.0243
- CAGAAGCC — lower, -0.0706
- GAGTGAAC — higher, 0.0586
- GGAGACAC — higher, 0.0538
- CACTATAC — lower, -0.0694
- AATGTGTA — lower, -0.212
- AGGGACGG — higher, 0.0347
- ATACCTGC — lower, -0.205
- ATCGTAAT — higher, 0.0156
- AGCTAATG — lower, -0.241
- CCATTCAA — higher, 0.0418
- CGAGACAA — lower, -0.0858
- ACTTAACA — lower, -0.208
- AGCTCACG — lower, -0.101
- ACAAAGCA — higher, 0.0388
- CGCTACAC — higher, -0.0343
- AGCAGTAA — lower, -0.071
- AGTCAAAT — lower, -0.196
- ATGATAGG — higher, -0.0232
- AGGGTCCA — higher, -0.0256
- GCATACGC — lower, -0.0534
- CCTCGCAA — lower, -0.16
- GCGCGCCA — higher, 0.253
- ACATCTAA — lower, -0.142
- AACCCTCG — higher, 0.0474
- GTGGTTTA — lower, -0.0524
- CAGAGCGA — higher, 0.0283
- TTATTCAA — lower, -0.255
- AGGGGCGA — higher, -0.0104
- CGACCCAA — higher, 0.0335
- GAATTGTC — higher, 0.00563
- ATCTGAGG — lower, -0.066
- CTCCCGCC — higher, 0.118
- AGCAGAGG — lower, -0.26
- ACGTTCTC — higher, -0.00453
- ATACCCGA — higher, 0.175
- AGAGTAGG — lower, -0.0905
- ACTCTTGC — lower, -0.0726
- CGCTTCAC — lower, -0.103
- GGGGAACA — higher, -0.00834
- CACTTGCA — lower, -0.134
- CAAGGCGA — lower, -0.174
- GGTGAGAA — higher, 0.0559
- ACTCGATC — higher, 0.0638
- ACTGTGAA — lower, -0.099
- ATGCTATC — higher, -0.0219
- CTAAGTGA — lower, -0.0814
- CAGTTACG — lower, -0.17
- TCCAGAAA — lower, -0.11
- ACATTGAG — lower, -0.113
- GACTTAGA — lower, -0.333
- TTACATAA — lower, -0.103
- CACCCTTC — lower, -0.0444
- CAACAAAA — lower, -0.155
- CTCCGGAG — higher, 0.476
- ACTCTATG — higher, 0.0265
- ACGGTCAG — lower, -0.362
- AGGAAACG — lower, -0.0809
- CCCGTAAC — higher, 0.137
- TGAGGCAA — higher, -0.0239
- ACCGACGT — higher, 0.065
- ATCTACTG — lower, -0.0583
- GCACGTTA — lower, -0.0451
- CATGTGGG — lower, -0.0907
- CACAGTGA — lower, -0.174
- AACGGTTC — higher, 0.0452
- AAAGACAA — higher, 0.0119
- ACCTGTTC — higher, 0.109
- CCGGCAAA — higher, 0.334
- ACACCATC — lower, -0.137
- AGCACAAT — lower, -0.0957
- GTAATAAA — lower, -0.0477
- GTCAGTTA — lower, -0.333
- CATGTTTA — lower, -0.0824
- CCCAGGCG — higher, 0.0338
- CTCTTCTC — lower, -0.18
- CATTCACA — lower, -0.136
